The whole screen tested about 420,000 compounds, of which about 64,000 (15%) were called active. Inconclusive results, whose numbers are uncertain, are shown with a selection of clear calls. Calls come from the whole dose curve; as a rule, active = well fitted inhibition curve with a large enough effect; inconclusive = small, poorly fitted or top-dose-only effect; inactive = flat fitted curve, though single readings scatter. Potencies of inconclusive entries are left out as doubtful fits.
Experiment: qHTS for Inhibitors of human tyrosyl-DNA phosphodiesterase 1 (TDP1): qHTS in cells in absence of CPT; note: nearly all actives have a fitted effect of over 55% in size
Settings: DT40 Tdp1-/- hTDP1 cells, no CPT, ATP luminescence, 48 h; activity change, negative = growth inhibition: at 46.2 µM (top of the series) unless noted
Method in brief: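 Luminescent ATP content (CellTiter-Glo) served as the growth readout. Knockout chicken DT40 cells expressing human TDP1 were exposed to compounds without camptothecin for a minimum 48 hr at 37 °C.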
With `COc1ccc(NC(=O)COC(=O)Cc2coc3cc(OC)ccc23)c(OC)c1` the Potency was “inactive”. With `COc1cc2c(c(OC)c1CC=C(C)C)C[C@H](c1ccc(O)cc1O)CO2` the Potency was inconclusive [inhibitor, single point]. With `COc1cccc(Nc2nnc(SCn3nnc4ccccc4c3=O)s2)c1` the Potency was inconclusive [inhibitor, single point]. In the case of `COc1ccc(NC(=O)CN2C(=O)CCc3cc(S(=O)(=O)N4CCOCC4)ccc32)cc1Cl`, the Potency is reported as “inactive”. For `COc1ccc(C(=O)COC(=O)c2ccc(-n3cnnn3)cc2)c(OC)c1`, the Potency was “inactive”. With `NC(=O)COC(=O)/C=C/c1ccc2ccccc2n1` the Potency was inconclusive [inhibitor, single point]. For `CC(=O)c1c(O)cc(O)c(C(C)=O)c1O`, the Potency was inconclusive [inhibitor, single point]. In the case of `Cc1ccc2nc(C3CCCCC3)c(Cc3cccc(Cl)c3)n2c1`, the Potency is reported as inconclusive [inhibitor, single point]. In the case of `O=C(/C=C\Nc1ccc(Cl)cn1)c1ccc(Br)cc1`, the Potency is reported as “inactive”. For `COC(=O)c1ccc(NC(=O)Nc2ccc(F)cc2)cc1`, the Potency was active: 13 µM. With `CCN(Cc1cnn(C)c1)C(=O)c1cc(COc2cc(C)c(Cl)c(C)c2)on1` the Potency was inconclusive [inhibitor, single point]. For `CC(=O)Nc1ccc(C2=CC(=O)C[C@H](c3ccc(Cl)cc3)C2)cc1`, the Potency was active: 16.4 µM. For `C[n+]1ccn(CC(=O)c2cc(C(C)(C)C)c(O)c(C(C)(C)C)c2)c1`, the Potency was inconclusive [inhibitor, single point]. For `COc1cc(CC(=O)OCc2cccc([N+](=O)[O-])c2)cc(OC)c1OC`, the Potency was inconclusive [inhibitor, single point]. With `Cc1cc(Oc2ccc(=O)n(C)n2)nc(SCc2ccccc2)n1` the Potency was “inactive”. With `CC1CCN(CCC(=O)Nc2ccc(Cl)cc2)CC1` the Potency was “inactive”. With `O=C(CN1CCCCC1)Nc1nc(-c2ccc(F)c(F)c2)cs1` the Potency was inconclusive [inhibitor, single point]. In the case of `CCOc1ccc2c(c1)C(C)=CC(C)(C)N2S(=O)(=O)c1ccc(C)cc1`, the Potency is reported as active: 6.51 µM. In the case of `COc1ccc(C(CNC(=O)c2cccc(NS(=O)(=O)c3ccc(C)c(F)c3)c2)N2CCOCC2)cc1` (stereo not given), the Potency is reported as inconclusive [inhibitor, partial curve]. For `C/C(=N\Nc1cc(N2CCOCC2)nc(C)n1)c1ccc(F)cc1`, the Potency was inconclusive [inhibitor, single point]. In the case of `CN(C)c1ccc(C(=O)OCC(=O)Nc2ccc(S(N)(=O)=O)cc2)cc1`, the Potency is reported as inconclusive [inhibitor, partial curve]. With `CCOc1ccc2nc(-c3ccccc3)nc(SCC(=O)Nc3ncc(C)s3)c2c1` the Potency was inconclusive [inhibitor, single point]. With `Cc1ccc(N2C(=O)N(CC(=O)Nc3ccc([N+](=O)[O-])cc3)C(=O)C2C)cc1` (stereo not given) the Potency was “inactive”. In the case of `O=C(c1ccc(Cl)cc1)N1CCC(C(=O)N2CCN(c3ncccn3)CC2)CC1`, the Potency is reported as “inactive”. With `CC(/C=C/c1ccc(N(C)C)cc1)=N\N=C(/N)SC1CC(=O)N(c2ccc(C(=O)O)cc2)C1=O` (stereo not given) the Potency was inconclusive [inhibitor, single point]. In the case of `N#Cc1c(NC(=O)COC(=O)c2ccc(O)cc2O)sc2c1CCC2`, the Potency is reported as inconclusive [inhibitor, single point]. In the case of `CSc1ncc(Cl)c(C(=O)Nc2ccccc2Br)n1`, the activity change, negative = growth inhibition is reported as inconclusive: -31.3% [inhibitor]. For `CN(C)c1ncc2ncc(=O)n(CCc3ccccc3)c2n1`, the Potency was active: 25.9 µM. With `Nc1cc2ccncc2c2ccccc12` the Potency was active: 10.3 µM. With `COc1ccc(-c2nnc(Nc3ccc(CC(N)=O)cc3)c3ccccc23)cc1` the Potency was inconclusive [inhibitor, single point]. With `Cc1nc(C(=O)NCCCO)cc2c1[nH]c1ccccc12` the Potency was inconclusive [inhibitor, single point]. In the case of `CCOC(=O)CSc1nc(C)c2cccc(C)c2n1`, the Potency is reported as “inactive”. For `CCCCOCCCNC(=O)c1ccc(OCC)cc1`, the Potency was inconclusive [inhibitor, partial curve, poor fit]. For `NC(=O)COC(=O)C1c2ccccc2Oc2ccccc21`, the Potency was inconclusive [inhibitor, full curve]. For `COc1ccc(NC(=O)/C=C/c2cccc(C(F)(F)F)c2)cn1`, the Potency was inconclusive [inhibitor, partial curve, poor fit]. For `CC(=O)c1ccc(N2CCN(C(=O)c3noc4c3CSc3ccccc3-4)CC2)cc1`, the Potency was inconclusive [inhibitor, partial curve, poor fit]. With `COc1ccc(C(C)(NC(C)=O)c2nc(/C=C/c3ccccc3)cs2)cc1` (stereo not given) the Potency was inconclusive [inhibitor, single point]. With `O=C(Nc1ccccc1)c1cn(-c2ccccc2)nc1-c1ccccc1` the Potency was active: 16.4 µM. In the case of `CN(CC(=O)NC(=O)NC1CCCCC1)CC(=O)Nc1ccc(OC(F)(F)F)cc1`, the Potency is reported as inconclusive [inhibitor, single point]. With `Cc1noc(C)c1COc1ccc(C(=O)N2CC(C)CC(C)C2)cc1` (stereo not given) the activity change, negative = growth inhibition was inconclusive: -31.2% [inhibitor]. For `COc1cc(Oc2nc(C(F)(F)F)nc3ccccc23)ccc1C=O`, the Potency was inconclusive [inhibitor, single point]. For `COC(=O)c1cccc(C23CC4(C2)[C@H](CN(Cc2ccc(C(F)(F)F)cc2)[C@@H]4c2ccccc2)C3c2ccc(C(F)(F)F)cc2)c1` (stereo not given in full), the Potency was inconclusive [inhibitor, single point]. For `O=C(NCc1ccc(F)cc1)c1ccc(S(=O)(=O)Nc2cccc(C(F)(F)F)c2)cc1`, the Potency was inconclusive [inhibitor, partial curve, poor fit]. With `Cc1cccnc1-c1cccc2c1OC(CNC(=O)/C=C/c1cccs1)C2` (stereo not given) the Potency was inconclusive [inhibitor, single point]. For `CCC(CO)Oc1cc(NC(=O)c2cccc3ccccc23)c2ncn(C(C)C)c2c1` (stereo not given), the Potency was inconclusive [inhibitor, single point]. For `COc1cccc(C(=O)COc2ccccc2-c2ccccc2)c1`, the Potency was inconclusive [inhibitor, partial curve, poor fit]. In the case of `Cc1nc(N2CCOCC2)c2c(C)c(C(=O)Nc3ccccc3Cl)sc2n1`, the Potency is reported as inconclusive [inhibitor, single point]. With `C[C@H](CO)N1C[C@H](C)[C@@H](CN(C)C(=O)Nc2ccccc2)Oc2ccc(NS(=O)(=O)c3cn(C)cn3)cc2C1=O` the Potency was “inactive”. With `CC(c1ccccc1)C1C(C#N)=C(N)SC(N)=C1C#N` (stereo not given) the Potency was “inactive”. For `CCOC(=O)C(=NC1CCCCC1)NNc1cccc(C(F)(F)F)c1`, the Potency was inconclusive [inhibitor, single point]. With `Cc1ccc(C)c(NC(=O)CCC(=O)NNC(=S)Nc2ccccc2)c1` the Potency was “inactive”. For `COc1cccc(S(=O)(=O)N(C)C[C@H]2OCc3cnnn3CCCC(=O)N([C@@H](C)CO)C[C@@H]2C)c1`, the activity change, negative = growth inhibition was inconclusive: -33.8% [inhibitor]. For `OCC1(CCOc2ccccc2)CCN(Cc2ccncc2)CC1`, the Potency was inconclusive [inhibitor, single point]. With `COc1ccc(/C=C/C(=O)c2ccc(Cl)cc2)c(OC)c1` the Potency was active: 18.4 µM. In the case of `CC(=O)Nc1cccc(Oc2ncnc3scc(-c4ccc(C(C)C)cc4)c23)c1`, the Potency is reported as active: 1.16 µM. With `COc1ccc(C(=O)CC(=O)c2ccc(F)cc2)cc1` the Potency was inconclusive [inhibitor, partial curve, poor fit]. For `O=C(Nc1ccc(F)cc1F)c1ccc(S(=O)(=O)NCc2ccco2)cc1`, the Potency was “inactive”. With `COc1ccc(-n2ncc3c(NCC(C)C)ncnc32)cc1` the Potency was inconclusive [inhibitor, single point]. For `COc1ccc2[nH]cc(CCNc3ncncc3-c3cccc(NS(C)(=O)=O)c3)c2c1`, the Potency was inconclusive [inhibitor, single point]. In the case of `O=c1oc(Nc2cccc(F)c2)nc2ccccc12`, the Potency is reported as inconclusive [inhibitor, partial curve, poor fit]. With `O=C(NCCc1cccc(Cl)c1)c1ccc(Cl)c([N+](=O)[O-])c1` the Potency was active: 20.6 µM. In the case of `COc1ccc(OC)c(NC(=O)c2ccc(NC3=NC4CS(=O)(=O)CC4S3)cc2)c1` (stereo not given), the Potency is reported as “inactive”. With `CCN1CCN(S(=O)(=O)c2cccc(S(=O)(=O)N3CCOCC3)c2)CC1` the Potency was “inactive”. In the case of `Cc1ccc(-c2nonc2NC(=O)c2ccco2)cc1C`, the Potency is reported as inconclusive [inhibitor, single point]. In the case of `COc1cc(CNc2ccc3[nH]c(=O)[nH]c3c2)cc(Cl)c1OCc1ccccc1F`, the Potency is reported as active: 8.2 µM. For `CSc1nnc(N2C(=O)C(O)=C(C(=O)c3ccc(C)o3)C2c2ccc(C)cc2)s1` (stereo not given), the Potency was inconclusive [inhibitor, single point]. In the case of `O=C(Nc1ccccc1-c1ccccc1)C12CC3CC(CC(C3)C1)C2`, the Potency is reported as active: 14.6 µM. With `CCOC(=O)c1sc(NC(=O)c2cccc(S(=O)(=O)N3CCN(C)CC3)c2)cc1C` the Potency was inconclusive [inhibitor, single point]. In the case of `O=C(Cc1ccccc1)Nc1ccc(NC(=O)C2CCCCC2)nc1`, the Potency is reported as “inactive”. For `COC(=O)c1ccc(/C=N/NC(=O)c2ccccc2Cl)cc1`, the Potency was inconclusive [inhibitor, single point].

From PubChem BioAssay AID686978 (National Center for Advancing Translational Sciences (NCATS), 2013)
% is set by controls: 0 for no effect and ±100 for the full control effect; potency is the fitted concentration of half-maximal effect; tags give direction and shape of the fitted curve.
